Measured values as given in paper PMC10882131.
Results are given in words; binding and its absence hold for the method and conditions named. Binding seen in cells or lysates may run through a third protein. Some binding calls cover weakened binding; strength is not graded here. Sequences can lack the tags named with a protein.

The chains behind the UniProt entries cited, without tags or fusion partners.
UniProt Q10435: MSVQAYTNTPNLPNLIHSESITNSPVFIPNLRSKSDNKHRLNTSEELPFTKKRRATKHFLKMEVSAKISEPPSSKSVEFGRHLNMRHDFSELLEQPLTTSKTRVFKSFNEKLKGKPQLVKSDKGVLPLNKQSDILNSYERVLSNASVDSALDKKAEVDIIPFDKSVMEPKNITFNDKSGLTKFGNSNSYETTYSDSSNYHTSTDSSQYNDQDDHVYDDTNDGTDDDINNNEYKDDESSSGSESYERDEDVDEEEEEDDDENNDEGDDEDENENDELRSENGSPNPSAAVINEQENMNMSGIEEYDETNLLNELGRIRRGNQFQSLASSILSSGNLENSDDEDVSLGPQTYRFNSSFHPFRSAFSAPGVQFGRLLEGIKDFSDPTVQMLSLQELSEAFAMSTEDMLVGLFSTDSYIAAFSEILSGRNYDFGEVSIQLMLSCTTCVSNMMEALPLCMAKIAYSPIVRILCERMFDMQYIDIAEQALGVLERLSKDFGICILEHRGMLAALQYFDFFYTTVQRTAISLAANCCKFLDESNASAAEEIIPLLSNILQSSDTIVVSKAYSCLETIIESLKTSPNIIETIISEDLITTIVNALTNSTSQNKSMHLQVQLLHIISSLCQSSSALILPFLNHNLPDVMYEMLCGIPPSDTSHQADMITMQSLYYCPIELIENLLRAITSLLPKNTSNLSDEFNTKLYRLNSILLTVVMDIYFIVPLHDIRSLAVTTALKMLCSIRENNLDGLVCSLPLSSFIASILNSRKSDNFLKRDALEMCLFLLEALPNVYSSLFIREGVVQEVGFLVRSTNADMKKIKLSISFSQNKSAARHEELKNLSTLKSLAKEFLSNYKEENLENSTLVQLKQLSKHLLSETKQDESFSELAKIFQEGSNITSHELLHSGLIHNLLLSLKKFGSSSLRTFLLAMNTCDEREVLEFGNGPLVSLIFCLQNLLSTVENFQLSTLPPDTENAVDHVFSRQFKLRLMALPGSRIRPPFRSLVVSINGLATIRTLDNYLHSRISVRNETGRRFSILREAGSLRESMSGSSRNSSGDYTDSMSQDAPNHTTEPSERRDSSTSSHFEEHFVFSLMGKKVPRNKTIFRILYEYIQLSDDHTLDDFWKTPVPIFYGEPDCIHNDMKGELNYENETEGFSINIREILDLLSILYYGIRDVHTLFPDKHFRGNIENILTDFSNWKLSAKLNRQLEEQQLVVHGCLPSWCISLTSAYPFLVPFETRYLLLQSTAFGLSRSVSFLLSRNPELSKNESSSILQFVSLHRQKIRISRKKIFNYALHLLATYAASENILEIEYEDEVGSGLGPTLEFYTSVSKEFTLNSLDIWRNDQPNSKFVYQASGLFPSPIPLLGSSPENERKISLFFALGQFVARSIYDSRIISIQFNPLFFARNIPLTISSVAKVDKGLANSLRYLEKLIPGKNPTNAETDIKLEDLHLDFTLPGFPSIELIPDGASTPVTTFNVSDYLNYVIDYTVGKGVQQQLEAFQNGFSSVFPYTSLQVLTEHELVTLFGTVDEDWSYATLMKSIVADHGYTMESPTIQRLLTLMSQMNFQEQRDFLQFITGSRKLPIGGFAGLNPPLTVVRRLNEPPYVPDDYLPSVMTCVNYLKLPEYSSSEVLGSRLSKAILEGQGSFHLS

Assays:
[1] = molecular target: T1, Php4-GFP (GFP-tagged full-length Php4) (S. pombe) (UniProt O14318); test: co-IP; reciprocal: anti-GFP beads precipitate Php4-GFP from the same extracts (cells grown 12 h, then bortezomib 12 h); blot with anti-HA
T1 sequence: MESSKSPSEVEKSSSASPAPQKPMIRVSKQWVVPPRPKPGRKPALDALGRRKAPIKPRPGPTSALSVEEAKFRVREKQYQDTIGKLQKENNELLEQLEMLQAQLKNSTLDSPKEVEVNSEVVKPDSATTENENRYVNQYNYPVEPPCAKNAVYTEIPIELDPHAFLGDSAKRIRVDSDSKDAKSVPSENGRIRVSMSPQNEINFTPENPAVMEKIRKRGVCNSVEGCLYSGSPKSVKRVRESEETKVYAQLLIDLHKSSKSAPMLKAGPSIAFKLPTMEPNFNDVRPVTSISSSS

[2] = molecular target: Hul6-HA (HECT-type E3 ubiquitin ligase 6, hemagglutinin epitope-tagged) (S. pombe) (UniProt Q10435); test: co-IP; anti-HA beads precipitate Hul6-HA from extracts of S. pombe cells grown 12 h in YE and then treated with bortezomib for 12 h; lysis buffer 50 mM Tris-HCl pH 7.5, 150 mM NaCl, 5 mM MgCl2, 1% Nonidet P-40; blot with anti-GFP

## Hul6-HA (HECT-type E3 ubiquitin ligase 6, hemagglutinin epitope-tagged) (from UniProt Q10435 1-1647) (enzyme)
[1]
  binding: binds

B1: Php4^Δ5-56-GFP (protein, UniProt O14318)
chain: MESSPRPGPTSALSVEEAKFRVREKQYQDTIGKLQKENNELLEQLEMLQAQLKNSTLDSPKEVEVNSEVVKPDSATTENENRYVNQYNYPVEPPCAKNAVYTEIPIELDPHAFLGDSAKRIRVDSDSKDAKSVPSENGRIRVSMSPQNEINFTPENPAVMEKIRKRGVCNSVEGCLYSGSPKSVKRVRESEETKVYAQLLIDLHKSSKSAPMLKAGPSIAFKLPTMEPNFNDVRPVTSISSSS
[2]
  binding: binds

B2: Php4^Δ217-295-GFP (domain or fragment, UniProt O14318 1-216)
chain: MESSKSPSEVEKSSSASPAPQKPMIRVSKQWVVPPRPKPGRKPALDALGRRKAPIKPRPGPTSALSVEEAKFRVREKQYQDTIGKLQKENNELLEQLEMLQAQLKNSTLDSPKEVEVNSEVVKPDSATTENENRYVNQYNYPVEPPCAKNAVYTEIPIELDPHAFLGDSAKRIRVDSDSKDAKSVPSENGRIRVSMSPQNEINFTPENPAVMEKIR
[2]
  binding: no binding

B3: Php4^Δ56-171-GFP (protein, UniProt O14318)
chain: MESSKSPSEVEKSSSASPAPQKPMIRVSKQWVVPPRPKPGRKPALDALGRRKAPIRIRVDSDSKDAKSVPSENGRIRVSMSPQNEINFTPENPAVMEKIRKRGVCNSVEGCLYSGSPKSVKRVRESEETKVYAQLLIDLHKSSKSAPMLKAGPSIAFKLPTMEPNFNDVRPVTSISSSS
[2]
  binding: binds

B4: Php4^Δ171-217-GFP (protein, UniProt O14318)
chain: MESSKSPSEVEKSSSASPAPQKPMIRVSKQWVVPPRPKPGRKPALDALGRRKAPIKPRPGPTSALSVEEAKFRVREKQYQDTIGKLQKENNELLEQLEMLQAQLKNSTLDSPKEVEVNSEVVKPDSATTENENRYVNQYNYPVEPPCAKNAVYTEIPIELDPHAFLGDSARGVCNSVEGCLYSGSPKSVKRVRESEETKVYAQLLIDLHKSSKSAPMLKAGPSIAFKLPTMEPNFNDVRPVTSISSSS
[2]
  binding: binds

B5: Php4-GFP (GFP-tagged full-length Php4) (protein, UniProt O14318 1-295)
chain: T1 sequence
[2]
  binding: binds
